From the supplement of paper PMC8728848
Some of the results follow.

Tests used:
Experiment in all cases: glycan array binding signal (z-score within array); higher = stronger binding
Conditions in all cases: glycan notation: IUPAC condensed, linker removed
[1] = biological target: Fuc(a1-3)[Gal3S(b1-4)]GlcNAc
How it was run: (§1)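 Glycan array binding is given as a within-array Z-score, which can be read as non-binding when negative. The arrays, 3228 of them, came from the Consortium for Functional Glycomics database and were retained only where the protein sequence was available. Z-scores were averaged across arrays of the same protein sequence at different concentrations or buffers and across linkers.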

[2] = biological target: Fuc(a1-3)[Gal3S(b1-4)]GlcNAc6S
How it was run: as §1

[3] = biological target: Fuc(a1-3)[GalNAc(b1-4)]GlcNAc
How it was run: as §1

[4] = biological target: Fuc(a1-3)[GalNAc(b1-4)]GlcNAc6S
How it was run: as §1

[5] = biological target: Fuc(a1-4)GlcNAc
How it was run: as §1

[6] = biological target: Fuc(b1-3)GlcNAc
How it was run: as §1

[7] = biological target: Gal(a1-2)Gal
How it was run: as §1

[8] = biological target: Gal(a1-3)Gal
How it was run: as §1

[9] = biological target: Gal(a1-3)Gal(b1-3)GlcNAc
How it was run: as §1

[10] = biological target: Gal(a1-3)Gal(b1-3)GlcNAc(b1-2)Man
How it was run: as §1

[11] = biological target: Gal(a1-3)Gal(b1-3)GlcNAc(b1-2)Man(a1-3)[Gal(a1-3)Gal(b1-3)GlcNAc(b1-2)Man(a1-6)]Man(b1-4)GlcNAc(b1-4)GlcNAc
How it was run: as §1

[12] = biological target: Gal(a1-3)Gal(b1-3)GlcNAc(b1-3)GalNAc
How it was run: as §1

[13] = biological target: Gal(a1-3)Gal(b1-3)GlcNAc(b1-6)GalNAc
How it was run: as §1

[14] = biological target: Gal(a1-3)Gal(b1-3)[Fuc(a1-4)]GlcNAc(b1-2)Man(a1-3)[Gal(a1-3)Gal(b1-3)[Fuc(a1-4)]GlcNAc(b1-2)Man(a1-6)]Man(b1-4)GlcNAc(b1-4)GlcNAc
How it was run: as §1

[15] = biological target: Gal(a1-3)Gal(b1-4)Glc
How it was run: as §1

[16] = biological target: Gal(a1-3)Gal(b1-4)GlcNAc
How it was run: as §1

[17] = biological target: Gal(a1-3)Gal(b1-4)GlcNAc(b1-2)Man
How it was run: as §1

[18] = biological target: Gal(a1-3)Gal(b1-4)GlcNAc(b1-2)Man(a1-3)[Gal(a1-3)Gal(b1-4)GlcNAc(b1-2)Man(a1-6)]Man(b1-4)GlcNAc(b1-4)GlcNAc
How it was run: as §1

[19] = biological target: Gal(a1-3)Gal(b1-4)GlcNAc(b1-3)GalNAc
How it was run: as §1

[20] = biological target: Gal(a1-3)Gal(b1-4)GlcNAc(b1-6)GalNAc
How it was run: as §1

[21] = biological target: Gal(a1-3)Gal(b1-4)[Fuc(a1-3)]GlcNAc
How it was run: as §1

[22] = biological target: Gal(a1-3)Gal(b1-4)[Fuc(a1-3)]GlcNAc(b1-2)Man(a1-3)[Gal(a1-3)Gal(b1-4)[Fuc(a1-3)]GlcNAc(b1-2)Man(a1-6)]Man(b1-4)GlcNAc(b1-4)GlcNAc
How it was run: as §1

[23] = biological target: Gal(a1-3)GalNAc
How it was run: as §1

[24] = biological target: Gal(a1-3)[Gal(a1-4)]Gal(b1-4)GlcNAc
How it was run: as §1

[25] = biological target: Gal(a1-4)Gal(b1-3)GlcNAc(b1-2)Man(a1-3)[Gal(a1-4)Gal(b1-3)GlcNAc(b1-2)Man(a1-6)]Man(b1-4)GlcNAc(b1-4)GlcNAc
How it was run: as §1

[26] = biological target: Gal(a1-4)Gal(b1-4)Glc
How it was run: as §1

[27] = biological target: Gal(a1-4)Gal(b1-4)GlcNAc
How it was run: as §1

[28] = biological target: Gal(a1-4)Gal(b1-4)GlcNAc(b1-2)Man(a1-3)[Gal(a1-4)Gal(b1-4)GlcNAc(b1-2)Man(a1-6)]Man(b1-4)GlcNAc(b1-4)GlcNAc
How it was run: as §1

[29] = biological target: Gal(a1-4)Gal(b1-4)GlcNAc(b1-3)Gal(b1-4)Glc
How it was run: as §1

[30] = biological target: Gal(a1-4)GlcNAc
How it was run: as §1

[31] = biological target: Gal(a1-6)Glc
How it was run: as §1

[32] = biological target: Gal(b1-2)Gal
How it was run: as §1

[33] = biological target: Gal(b1-3)Gal
How it was run: as §1

[34] = biological target: Gal(b1-3)Gal(b1-4)GlcNAc
How it was run: as §1

[35] = biological target: Gal(b1-3)GalNAc
How it was run: as §1

[36] = biological target: Gal(b1-3)GalNAc(a1-3)[Fuc(a1-2)]Gal(b1-4)Glc
How it was run: as §1

[37] = biological target: Gal(b1-3)GalNAc(a1-3)[Fuc(a1-2)]Gal(b1-4)GlcNAc
How it was run: as §1

B1: SGC, Q9M345 (protein)
chain: QNLNFTYNGFHPPLTDISLQGLATVTPNGLLKLTNTSVQKTGHAFCTERIRFKDSQNGNVSSFSTTFVFAIHSQIPTLSGHGIAFVVAPTLGLPFALPSQYIGLFNISNNGNDTNHIFAVEFDTIQSSEFGDPNDNHVGIDLNGLRSANYSTAGYRDDHDKFQNLSLISRKRIQVWIDYDNRSHRIDVTVAPFDSDKPRKPLVSYVRDLSSILLEDMYVGFSSATGSVLSEHFLVGWSFRLNGEAPMLSLSKLPKLPRFEPRRIS
B1 was tested, and the “glycan array binding signal (z-score)” value [1] was -0.299, the “glycan array binding signal (z-score)” value [2] was -0.241 and the “glycan array binding signal (z-score)” value [3] was -0.292. The “glycan array binding signal (z-score)” value [4] was -0.115, the “glycan array binding signal (z-score)” value [5] was -0.072 and the “glycan array binding signal (z-score)” value [6] was -0.232. For the same binder, the “glycan array binding signal (z-score)” value [7] was -0.395, the “glycan array binding signal (z-score)” value [8] was -0.031 and the “glycan array binding signal (z-score)” value [9] was -0.343. The “glycan array binding signal (z-score)” value [10] was -0.369, the “glycan array binding signal (z-score)” value [11] was 1.46 and the “glycan array binding signal (z-score)” value [12] was -0.254. For the same binder, the “glycan array binding signal (z-score)” value [13] was 0.373, the “glycan array binding signal (z-score)” value [14] was 1.24 and the “glycan array binding signal (z-score)” value [15] was 0.068. The “glycan array binding signal (z-score)” value [16] was -0.148, the “glycan array binding signal (z-score)” value [17] was -0.355 and the “glycan array binding signal (z-score)” value [18] was 0.865. The “glycan array binding signal (z-score)” value [19] was -0.313, the “glycan array binding signal (z-score)” value [20] was -0.307 and the “glycan array binding signal (z-score)” value [21] was -0.377. The “glycan array binding signal (z-score)” value [22] was 1.5, the “glycan array binding signal (z-score)” value [23] was -0.377 and the “glycan array binding signal (z-score)” value [24] was 0.712. The “glycan array binding signal (z-score)” value [25] was 0.05, the “glycan array binding signal (z-score)” value [26] was -0.292 and the “glycan array binding signal (z-score)” value [27] was -0.313. For the same binder, the “glycan array binding signal (z-score)” value [28] was 1.84, the “glycan array binding signal (z-score)” value [29] was 0.556 and the “glycan array binding signal (z-score)” value [30] was -0.329. For the same binder, the “glycan array binding signal (z-score)” value [31] was -0.4, the “glycan array binding signal (z-score)” value [32] was -0.409 and the “glycan array binding signal (z-score)” value [33] was -0.361. The “glycan array binding signal (z-score)” value [34] was 0.776, the “glycan array binding signal (z-score)” value [35] was -0.125 and the “glycan array binding signal (z-score)” value [36] was -0.312. The “glycan array binding signal (z-score)” value [37] was -0.316.
